From PubChem BioAssay AID1963576 (National Center for Advancing Translational Sciences (NCATS), 2024)
About 60 (0.1%) of roughly 46,000 compounds were called active. Inconclusive results (about 3%) are left out. Calls come from the whole dose curve; as a rule, active = well fitted inhibition curve with a large enough effect; inconclusive = small, poorly fitted or top-dose-only effect; inactive = no such curve, though single readings can be large or run the other way. Some of the results follow.

Assay: Primary qHTS assay for Inhibitors of ovarian cancer metastasis using an organotypic tumor microenvironment (TME) model.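 For activity change, negative = inhibition: plate controls were DMSO wells for no effect and tomatine positive control wells for full effect.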 Note: nearly all actives have a fitted effect of over 65% in size.
Details: SKOV3ip1-GFP adhesion/invasion on 3D omental model, fluorescence; series mostly up to 45.8 µM; activity change, negative = inhibition: at the top concentration
Method in brief: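 Primary human omental fibroblast/mesothelial 3D culture pre-formed 48 h. SKOV3ip1-GFP cells added with compounds (0.36-46 umol/L), incubated 2 h RT/16 h 37 C, fixed; GFP cells quantified at 488/509 nm.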

Row | SMILES | activity change, negative = inhibition | outcome
1 | Cc1cccc(C(=O)Nc2ccc3oc(-c4ccncc4)nc3c2)c1 | inactive: -9.5% | –
2 | CCOc1ccc(C(=O)OCc2cc(=O)n3cc(C)sc3n2)cc1 | inactive: 0.585% | –
3 | COc1ccc(-c2nc3scc(CCNC(=O)c4cc(OC)cc(OC)c4)n3n2)cc1 | inactive: 11% | –
4 | CC(C)N1CCc2nc(SCC(=O)Nc3cccc(F)c3)[nH]c(=O)c2C1 | inactive: 5.13% | –
5 | COC(=O)Nc1nc2ccc(Sc3ccccc3)cc2[nH]1 | inactive: -12.4% | –
6 | COc1ccc(CNC(=O)CSc2ncc(S(=O)(=O)c3ccc(Br)cc3)c(=O)[nH]2)cc1 | – | inactive
7 | Cc1ccc2[nH]c3c(=O)n(CC(=O)NC(C)C)ncc3c2c1 | inactive: -4.46% | –
8 | COc1ccc(-c2[nH]c3ccccc3c2SCCNC(=O)c2ccc(S(=O)(=O)N(C)C)cc2)cc1 | inactive: 1.79% | –
9 | COc1ccc(S(=O)(=O)NCC(c2ccc(N(C)C)cc2)N2CCOCC2)cc1 (stereo not drawn) | inactive: 32.4% | –
10 | COC(=O)c1cccc(Nc2nn3c(=O)c4cc5c(cc4nc3s2)OCO5)c1 | – | inactive
11 | CCOc1ccc(CNC(=O)c2sc3ncnc(N(C)C4CCCCC4)c3c2C)cc1 | inactive: 4.28% | –
12 | NC(=O)c1ccccc1NC(=O)Cn1nc(Cc2cccnc2)c2ccccc2c1=O | inactive: -3.01% | –
13 | Cc1nn(-c2ccc(N3CCOCC3)nn2)c(C)c1CCC(=O)NCc1ccccc1F | – | inactive
14 | CCNc1oc(-c2ccc(COc3ccc(Cl)cc3)o2)nc1C#N | inactive: 16.4% | –
15 | CCCCOc1ccc(CNC(=O)Cc2ccc(NC(=O)N3CCSc4ncccc43)cc2)cc1 | inactive: -5.86% | –
16 | O=C(CSC1=Nc2ccccc2N=C(c2ccc(F)cc2)C1)NCc1ccccc1Cl | – | inactive
17 | COC(=O)c1cc2oc(C)cc2n1CC(=O)Nc1cc(Cl)ccc1OC | inactive: -0.98% | –
18 | COc1ccc(S(=O)(=O)N2CCN(CC(=O)Nc3ccc(Cl)c(C(F)(F)F)c3)CC2)cc1 | inactive: 4.1% | –
19 | Cc1ccc(Cl)cc1NC(=O)CSc1nc2c(c(=O)[nH]1)CN(Cc1ccccc1)CC2 | inactive: -3.56% | –
20 | COc1ccc(C(=O)Oc2cc(-c3ccc4c(c3)OCO4)cc(=O)c3c(C)oc(C)c23)cc1 | inactive: -5.94% | –
21 | O=C(CSc1ncc(CO)n1Cc1ccc(Cl)cc1)NCc1ccc(F)cc1 | inactive: -9.2% | –
22 | COc1ccc(CNC(=O)c2cc3cccc4c3n2CC(C)S4)c(OC)c1 (stereo not drawn) | inactive: -16.5% | –
23 | Cc1cccc(NC(=O)CSc2nc(=O)n(Cc3ccccn3)c3c2CCC3)c1C | inactive: 1.91% | –
24 | CCOc1ccc(NC(=O)N(C(C)C)C2CCN(C(C)=O)CC2)cc1 | – | inactive

Row | SMILES | activity change, negative = inhibition | outcome
25 | Cc1ccc(-c2onc(C)c2C)cc1S(=O)(=O)Nc1ccc(Cl)cn1 | inactive: 0.245% | –
26 | COc1ccc(NC(=O)C2Cc3ccccc3N2C(=O)c2ccccc2)cc1OC (stereo not drawn) | – | inactive
27 | Cc1ccccc1C(=O)Nc1ccc(C(=O)OCc2cc(=O)n3nc(C(C)C)sc3n2)cc1 | inactive: 2.51% | –
28 | CCOC(=O)c1ccc(NC(=O)CCc2c(C)nc3c(-c4ccc(F)cc4)c(C)nn3c2C)cc1 | inactive: -2.77% | –
29 | CCOc1ccc2nc(NC(=O)c3cc(=O)c4cc(C)cc(C)c4o3)sc2c1 | inactive: 5.63% | –
30 | COc1ccc(N(Cc2cccs2)C(=O)COc2cc(C)c(Cl)c(C)c2)cc1 | – | inactive
31 | CSc1ncc(C(=O)Nc2ccc(C(C)=O)cc2)c(-c2ccccc2)n1 | inactive: 2.73% | –
32 | COc1ccc(NC(=O)c2cn3c4c(ccc(Cl)c4c2=O)OC(C)C3)cc1OC (stereo not drawn) | inactive: 5.79% | –
33 | Cc1ccc(NC(=O)CC(C)S(=O)(=O)c2ccc3c(c2)NC(=O)CO3)cc1C (stereo not drawn) | inactive: 6.02% | –
34 | CCOc1ccc(-c2cn3c(n2)sc2cc(C(=O)NC4CCCc5ccccc54)ccc23)cc1 (stereo not drawn) | inactive: -0.553% | –
35 | N#CC(=C(N)Sc1ccccc1N)C(C#N)=C(N)Sc1ccccc1N | inactive: 0.988% | –
36 | Cc1oc2ccc(O)c(CN3CCCC3)c2c1C(=O)Nc1cccc(Cl)c1C | inactive: 1.41% | –
37 | COc1ccc(Nc2cc(C(=O)NCc3ccccc3)c3ccccc3n2)c(OC)c1 | inactive: 4.52% | –
38 | COc1ccc2c(CNCCc3ccccc3)c(C(=O)O)n(Cc3cccc(F)c3)c2c1 | inactive: -8.18% | –
39 | Cc1cccc(NC(=O)CSc2nc3c(oc4ccccc43)c(=O)n2-c2ccc(F)cc2)c1 | inactive: 36.9% | –
40 | COc1ccc(-c2noc(-c3cccc(OC)c3OC)n2)cc1 | inactive: -1.65% | –
41 | O=S(=O)(c1ccc2nc(N3CCN(c4ccccc4)CC3)ccc2c1)N1CCCCC1 | – | inactive
42 | COc1ccc(CNC(=O)C2Cc3cc(S(=O)(=O)N4CCCCCC4)ccc3N2C(C)=O)cc1 (stereo not drawn) | inactive: 7.38% | –
43 | Cc1cc(-c2ccc(S(=O)(=O)Nc3ccc(Br)c(C)c3)s2)on1 | inactive: -3.84% | –
44 | CSc1nnc2[nH]c(=O)cc(C)n12 | – | inactive
45 | COc1ccc(Cl)cc1NC(=O)Cn1cc2c(n1)CCC(C)C2 (stereo not drawn) | inactive: -4.59% | –
46 | O=c1c2cnn(-c3ccc(F)cc3)c2ncn1Cc1ccc(F)cc1 | inactive: -1.24% | –
47 | Cc1cccc(NC(=O)Cc2ccc(-n3c(C)nc4cccnc43)cc2)c1C | inactive: -8.37% | –
48 | COc1ccc(CCN2C(=O)N(c3ccccc3)C(=O)C2CC(=O)Nc2ccccc2)cc1 (stereo not drawn) | inactive: -17.9% | –
